Measurements taken from paper PMC9469500, “Targeting an Initiator Allergen Provides Durable and Expansive Protection against House Dust Mite Allergy” (ACS Pharmacology & Translational Science, 2022).

System: sensitized rats challenged with purified Der p 1
Test: Purified Der p 1 challenge in sensitized rats (BAL cells)
Conditions: i.t. aerosol challenge with 0.01 or 10 µg purified Der p 1

For `CC(C)[C@H](NC(=O)[C@H](C)NC(=O)[C@@H](NC(=O)C1CC[N+](C)(C)CC1)C(C)(C)C)C(=O)C(=O)NCc1ccccc1` [Compound 2, 4-{(S)-1-[(S)-1-((S)-1-benzylaminooxalyl-2-methyl-propylcarbamoyl)-ethylcarbamoyl]-2,2-dimethyl-propylcarbamoyl}-1,1-dimethyl-piperidinium formate], the “BAL neutrophil response after Der p 1 challenge” value was “inhibited” and the “changes in BAL eosinophils after Der p 1 challenge” value was “inhibited”.

Counter-ions that a name gives are not always drawn.
